Results reported in publication PMC7349898.
Results are given in words; binding and its absence hold for the method and conditions named. Some binding calls cover weakened binding; strength is not graded here.

T1: AtIDD15 (Arabidopsis) (UniProt F4IPE3)
T1 sequence: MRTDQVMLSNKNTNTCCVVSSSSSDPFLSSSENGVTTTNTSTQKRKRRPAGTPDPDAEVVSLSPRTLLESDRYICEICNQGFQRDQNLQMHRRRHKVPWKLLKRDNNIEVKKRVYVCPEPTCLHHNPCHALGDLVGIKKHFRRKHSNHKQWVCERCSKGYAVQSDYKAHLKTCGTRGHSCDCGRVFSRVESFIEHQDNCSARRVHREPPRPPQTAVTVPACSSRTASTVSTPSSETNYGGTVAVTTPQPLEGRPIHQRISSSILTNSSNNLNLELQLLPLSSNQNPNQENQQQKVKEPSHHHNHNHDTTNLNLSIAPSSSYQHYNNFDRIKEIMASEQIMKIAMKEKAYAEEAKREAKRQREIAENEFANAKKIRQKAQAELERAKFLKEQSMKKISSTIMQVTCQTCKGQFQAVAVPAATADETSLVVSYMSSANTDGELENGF

T2: AtIDD16 (Arabidopsis) (UniProt Q9FRH4)
T2 sequence: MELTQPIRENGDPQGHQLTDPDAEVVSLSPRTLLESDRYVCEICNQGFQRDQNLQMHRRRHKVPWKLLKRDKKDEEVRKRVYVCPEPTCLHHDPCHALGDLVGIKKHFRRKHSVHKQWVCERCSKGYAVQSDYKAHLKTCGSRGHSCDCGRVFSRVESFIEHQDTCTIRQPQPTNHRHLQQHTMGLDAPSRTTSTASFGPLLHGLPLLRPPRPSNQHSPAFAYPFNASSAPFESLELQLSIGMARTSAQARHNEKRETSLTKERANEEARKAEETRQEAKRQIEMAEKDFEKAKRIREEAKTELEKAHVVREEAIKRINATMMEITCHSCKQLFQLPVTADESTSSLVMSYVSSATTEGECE

T3: AtIDD10 (Arabidopsis) (UniProt Q700D2)
T3 sequence: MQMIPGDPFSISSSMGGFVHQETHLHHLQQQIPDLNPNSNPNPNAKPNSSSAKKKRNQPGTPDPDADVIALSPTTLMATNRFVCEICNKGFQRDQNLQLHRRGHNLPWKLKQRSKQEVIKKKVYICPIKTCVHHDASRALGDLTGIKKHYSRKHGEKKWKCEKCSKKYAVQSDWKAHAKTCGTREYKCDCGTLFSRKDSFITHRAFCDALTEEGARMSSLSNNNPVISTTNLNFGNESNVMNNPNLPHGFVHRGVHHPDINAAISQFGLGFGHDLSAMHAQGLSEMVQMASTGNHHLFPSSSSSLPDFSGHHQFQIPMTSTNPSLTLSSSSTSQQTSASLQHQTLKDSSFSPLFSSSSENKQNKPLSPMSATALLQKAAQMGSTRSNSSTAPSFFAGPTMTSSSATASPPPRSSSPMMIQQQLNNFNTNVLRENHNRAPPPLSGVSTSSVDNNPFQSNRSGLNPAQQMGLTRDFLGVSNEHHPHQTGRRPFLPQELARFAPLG

T4: OsID1 (rice) (UniProt B1B534)
T4 sequence: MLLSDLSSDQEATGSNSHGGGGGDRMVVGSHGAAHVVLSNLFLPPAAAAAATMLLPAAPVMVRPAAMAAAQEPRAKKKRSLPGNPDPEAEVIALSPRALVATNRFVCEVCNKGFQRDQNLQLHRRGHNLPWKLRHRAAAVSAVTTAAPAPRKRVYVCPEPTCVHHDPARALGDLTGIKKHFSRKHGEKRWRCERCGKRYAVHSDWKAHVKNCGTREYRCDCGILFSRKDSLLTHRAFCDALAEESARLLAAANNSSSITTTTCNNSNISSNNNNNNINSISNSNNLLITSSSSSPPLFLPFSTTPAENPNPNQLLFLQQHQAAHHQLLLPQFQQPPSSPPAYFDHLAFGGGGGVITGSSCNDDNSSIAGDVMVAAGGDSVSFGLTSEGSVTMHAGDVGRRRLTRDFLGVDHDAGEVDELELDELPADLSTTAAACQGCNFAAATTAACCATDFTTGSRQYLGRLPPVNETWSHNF

T5: AtIDD1 (Arabidopsis) (UniProt Q9LVQ7)
T5 sequence: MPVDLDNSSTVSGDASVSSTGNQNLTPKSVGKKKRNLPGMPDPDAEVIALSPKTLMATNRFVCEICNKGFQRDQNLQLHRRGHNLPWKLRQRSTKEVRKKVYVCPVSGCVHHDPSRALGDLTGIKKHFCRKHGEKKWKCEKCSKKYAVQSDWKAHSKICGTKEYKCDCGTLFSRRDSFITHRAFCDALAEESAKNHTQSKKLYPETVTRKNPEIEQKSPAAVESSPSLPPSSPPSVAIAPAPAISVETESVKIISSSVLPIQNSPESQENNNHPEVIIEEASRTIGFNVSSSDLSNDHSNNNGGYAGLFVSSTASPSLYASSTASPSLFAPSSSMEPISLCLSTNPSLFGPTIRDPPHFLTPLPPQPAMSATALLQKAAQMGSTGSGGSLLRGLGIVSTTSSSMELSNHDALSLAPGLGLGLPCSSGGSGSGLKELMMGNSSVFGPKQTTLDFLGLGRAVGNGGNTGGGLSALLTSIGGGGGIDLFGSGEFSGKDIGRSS

B1: SHORT-ROOT (protein, UniProt Q9SZF7 1-531)
chain: MDTLFRLVSLQQQQQSDSIITNQSSLSRTSTTTTGSPQTAYHYNFPQNDVVEECFNFFMDEEDLSSSSSHHNHHNHNNPNTYYSPFTTPTQYHPATSSTPSSTAAAAALASPYSSSGHHNDPSAFSIPQTPPSFDFSANAKWADSVLLEAARAFSDKDTARAQQILWTLNELSSPYGDTEQKLASYFLQALFNRMTGSGERCYRTMVTAAATEKTCSFESTRKTVLKFQEVSPWATFGHVAANGAILEAVDGEAKIHIVDISSTFCTQWPTLLEALATRSDDTPHLRLTTVVVANKFVNDQTASHRMMKEIGNRMEKFARLMGVPFKFNIIHHVGDLSEFDLNELDVKPDEVLAINCVGAMHGIASRGSPRDAVISSFRRLRPRIVTVVEEEADLVGEEEGGFDDEFLRGFGECLRWFRVCFESWEESFPRTSNERLMLERAAGRAIVDLVACEPSDSTERRETARKWSRRMRNSGFGAVGYSDEVADDVRALLRRYKEGVWSMVQCPDAAGIFLCWRDQPVVWASAWRPT
B2: RGA-LIKE 1 (protein, UniProt Q9C8Y3 1-511)
chain: MKREHNHRESSAGEGGSSSMTTVIKEEAAGVDELLVVLGYKVRSSDMADVAHKLEQLEMVLGDGISNLSDETVHYNPSDLSGWVESMLSDLDPTRIQEKPDSEYDLRAIPGSAVYPRDEHVTRRSKRTRIESELSSTRSVVVLDSQETGVRLVHALLACAEAVQQNNLKLADALVKHVGLLASSQAGAMRKVATYFAEGLARRIYRIYPRDDVALSSFSDTLQIHFYESCPYLKFAHFTANQAILEVFATAEKVHVIDLGLNHGLQWPALIQALALRPNGPPDFRLTGIGYSLTDIQEVGWKLGQLASTIGVNFEFKSIALNNLSDLKPEMLDIRPGLESVAVNSVFELHRLLAHPGSIDKFLSTIKSIRPDIMTVVEQEANHNGTVFLDRFTESLHYYSSLFDSLEGPPSQDRVMSELFLGRQILNLVACEGEDRVERHETLNQWRNRFGLGGFKPVSIGSNAYKQASMLLALYAGADGYNVEENEGCLLLGWQTRPLIATSAWRINRVE
B3: SCARECROW-LIKE 3 (protein, UniProt Q9LPR8 1-482)
chain: MVAMFQEDNGTSSVASSPLQVFSTMSLNRPTLLASSSPFHCLKDLKPEERGLYLIHLLLTCANHVASGSLQNANAALEQLSHLASPDGDTMQRIAAYFTEALANRILKSWPGLYKALNATQTRTNNVSEEIHVRRLFFEMFPILKVSYLLTNRAILEAMEGEKMVHVIDLDASEPAQWLALLQAFNSRPEGPPHLRITGVHHQKEVLEQMAHRLIEEAEKLDIPFQFNPVVSRLDCLNVEQLRVKTGEALAVSSVLQLHTFLASDDDLMRKNCALRFQNNPSGVDLQRVLMMSHGSAAEARENDMSNNNGYSPSGDSASSLPLPSSGRTDSFLNAIWGLSPKVMVVTEQDSDHNGSTLMERLLESLYTYAALFDCLETKVPRTSQDRIKVEKMLFGEEIKNIISCEGFERRERHEKLEKWSQRIDLAGFGNVPLSYYAMLQARRLLQGCGFDGYRIKEESGCAVICWQDRPLYSVSAWRCRK
B4: SLR1 (protein, UniProt Q7G7J6 1-625)
chain: MKREYQEAGGSSGGGSSADMGSCKDKVMAGAAGEEEDVDELLAALGYKVRSSDMADVAQKLEQLEMAMGMGGVSAPGAADDGFVSHLATDTVHYNPSDLSSWVESMLSELNAPLPPIPPAPPAARHASTSSTVTGGGGSGFFELPAAADSSSSTYALRPISLPVVATADPSAADSARDTKRMRTGGGSTSSSSSSSSSLGGGASRGSVVEAAPPATQGAAAANAPAVPVVVVDTQEAGIRLVHALLACAEAVQQENFAAAEALVKQIPTLAASQGGAMRKVAAYFGEALARRVYRFRPADSTLLDAAFADLLHAHFYESCPYLKFAHFTANQAILEAFAGCHRVHVVDFGIKQGMQWPALLQALALRPGGPPSFRLTGVGPPQPDETDALQQVGWKLAQFAHTIRVDFQYRGLVAATLADLEPFMLQPEGEADANEEPEVIAVNSVFELHRLLAQPGALEKVLGTVHAVRPRIVTVVEQEANHNSGSFLDRFTESLHYYSTMFDSLEGGSSGQAELSPPAAGGGGGTDQVMSEVYLGRQICNVVACEGAERTERHETLGQWRNRLGRAGFEPVHLGSNAYKQASTLLALFAGGDGYRVEEKEGCLTLGWHTRPLIATSAWRVAAA

How the values were obtained:
Experiment in all cases: two-hybrid; Gal4 yeast two-hybrid; baits in pGBT9, preys in pGAD424; yeast strain PJ69-4A; serial dilutions spotted on -LW and -LWH with an appropriate concentration of 3-AT; 3 days at 30 °C
[1] = molecular target: T1, AtIDD15 (Arabidopsis)
[2] = molecular target: T2, AtIDD16 (Arabidopsis)
[3] = molecular target: T3, AtIDD10 (Arabidopsis)
[4] = molecular target: T4, OsID1 (rice)
[5] = molecular target: T5, AtIDD1 (Arabidopsis)

| Binder | binding [1] | binding [2] | binding [3] | binding [4] | binding [5] |
| --- | --- | --- | --- | --- | --- |
| B1 | no binding | no binding | binds | binds | binds |
| B2 | no binding | no binding | binds | binds | binds |
| B3 | no binding | no binding | binds | no binding | binds |
| B4 | no binding | no binding | binds weakly | binds weakly | binds |
